From the supplement of paper PMC10338343
± gives the standard deviation. Only a part is listed here, and it is no random draw.

Test system: MIWI (PIWIL1) piRISC loaded with L1MC piRNA (30 nt)
Experiment: pre-steady-state target cleavage rate (min^-1); MIWI and MILI are mouse PIWI proteins and EfPiwi is from a freshwater sponge; tags in brackets are library labels; higher = faster piRNA-guided slicing of the target
Conditions: guide: L1MC piRNA 5'p-UAACUAAAUACUAUGCAAGCUGUAGGUCCU
Summary of the method: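 Using HEPES–potassium acetate buffer at 33 °C, 1 nM active affinity-purified piRISC with a single synthetic guide was mixed with 0.1 nM transcribed, DNA-blocked target RNA library for 0–8 or 0–960 min, with or without 500 nM GTSF1 partner protein. Uncleaved targets were sequenced and normalised to depth and to weakly complementary targets, and three trials were pooled with k3 capped at 0.0001 min^-1. A burst-and-steady-state fit gave the pre-steady-state cleavage rate.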

[1] = auxiliary factor: 500 nM mouse GTSF1
[2] = auxiliary factor: none (no GTSF1)

Sequence	pre-steady-state target cleavage rate [1]	pre-steady-state target cleavage rate [2]
UCCACCUACACGAUGCAUAGUAUUUAGUUA	0.868 ± 0.047	0.00438 ± 0.0017
UCCUGGAUCUGCUUGCAAAGUAUUUAGUUA	0.259 ± 0.028	0.0178 ± 0.0051
UCCUCCAACUGCUUGCAUAGUAUUUAGUUA	1.05 ± 0.044	0.0455 ± 0.0077
UCCUGGUACAGCUUGCAAAGUAUUUAGAAA	0.17 ± 0.054	0.004 ± 0.0037
AGGACCUACUCGUUGCAUAGUAUUUAGAAA	0.232 ± 0.03	0.00601 ± 0.0021
AGCACCUACAGCUUGCAUAGAAUUUAGUUA	0.713 ± 0.11	0.0143 ± 0.0045
UCCUCCUACAGCUGUGCAUAGUAUUUAGUUA	1.18 ± 0.064	0.0204 ± 0.0047
UCCUGGAUCAGCUUGCAUAGUAGUUAGUUA	0.571 ± 0.039	0.0184 ± 0.0056
AGGACCUACAGCUUGCAUAGUAUUGUAGUUA	0.601 ± 0.089	0.0696 ± 0.014
UCCUGGAUGAGCUUGCAUAGUUUUUUGUUA	0.0806 ± 0.014	0.0177 ± 0.0048
UCCUGGUACAGCAUGCAUAGUAUUUAGAUA	0.317 ± 0.036	0.00711 ± 0.002
UGGACCAUCAGCUUGCAUAGUAUUUAGAAA	0.408 ± 0.033	0.0117 ± 0.0042
AGGACCUACAGCUUGCAAAGUAUAUAGUUA	0.667 ± 0.049	0.0238 ± 0.0054
UCCUGGAUGUGCUUUCAUAGUAUUUAGUUA	0.15 ± 0.018	0.00697 ± 0.0029
UGGACCUACAGGUUGCAUUGUAUUUAGUUA	0.763 ± 0.05	0.0199 ± 0.0053
UCCUCCUACAGCUUGCAUAGUAUUUAUGUUA	0.387 ± 0.021	0.0232 ± 0.0055
UCGACCAACAGCUUGCAUAGUAUUUUGUUA	0.939 ± 0.043	0.0471 ± 0.0068
AGGUCCUACACCUUGCAUAGUAUUUAGUUA	1.11 ± 0.031	0.0618 ± 0.008
UCGAGGAACAGCUUGCAUAGUAUUUAGUAA	1.05 ± 0.11	0.0574 ± 0.012
UCCUGGAUCAGCUUGCAUAGUAUUCUAGUUA	0.583 ± 0.066	0.0159 ± 0.0048
UCGUCCUACAGCUUCCAUAGUAUUUAGUUA	0.111 ± 0.027	0.0031 ± 0.0013
UGGACGUACAGCUUGCAAAGUAUUUAGUUA	1.3 ± 0.045	0.0558 ± 0.0096
AGGACCUACAGCUUGGAUAGUAUUAAGUUA	0.722 ± 0.072	0.0226 ± 0.004
UCCUGCUACAGGUUGCAUUGUAUUUAGUUA	0.611 ± 0.073	0.0149 ± 0.0041
UCGACGAACAGCUUGCAUAGUAUUUUCAAA	0.324 ± 0.038	0.00414 ± 0.0023
UCCUCCUACUCCUUGCAUAGUAUUUACAAA	0.269 ± 0.043	0.00227 ± 0.0019
UCCUGGAUGAGCUUGCAUCGUAUUUAGUUA	0.218 ± 0.015	0.0272 ± 0.0072
AGGACCUUCAGCUUGCAAAGUAUUUAGUUA	1.3 ± 0.051	0.0464 ± 0.0089

Sequence	pre-steady-state target cleavage rate [1]	pre-steady-state target cleavage rate [2]
UCCUCCUAGAGCUUGCAUAGUUUUUAGUUA	0.301 ± 0.028	0.0163 ± 0.0035
UCCACCUACAGCUUGCAUGUAUUUAGUUA	0.298 ± 0.025	0.00292 ± 0.0021
UCCUCCUACAGCUUGGAUAGUAAUUAGUUA	0.805 ± 0.042	0.0182 ± 0.0039
UCCUGGAUGUGCGUGCAUAGUAUUUAGUUA	0.255 ± 0.027	0.025 ± 0.0072
UGGACCUACAGCUAGCAUAGUAUUUAGUAA	1.08 ± 0.065	0.016 ± 0.0033
UCCACCUACAGCAAGCAUAGUAUUUAGUUA	1.02 ± 0.048	0.00449 ± 0.002
ACGACCUACAGCUUGCAUAGUAUAUAGUUA	0.91 ± 0.04	0.0788 ± 0.018
AGGACCUACAGCUUGCAUAGUAUUUAGGUUA	0.443 ± 0.068	0.0392 ± 0.012
UCCUGGUACAGCUUGCAAUGUAUUUAGUUA	0.279 ± 0.02	0.0101 ± 0.0036
UCCUGGAACAGCUUGCAAAGUAUUUACAAA	0.149 ± 0.03	0.00442 ± 0.0026
UCCUGGAACAGGUUGCAUAGUAUUUAGUAA	0.751 ± 0.067	0.0102 ± 0.0026
UCCUGGUACAGCUUGCUUAGUUUUUAGUUA	0.111 ± 0.019	0.0344 ± 0.0094
UCGACCUACAGCUUGCAUAGUAUAAUGUUA	0.514 ± 0.037	0.0213 ± 0.0053
UCCUCCUUCAGCUUGCAUAGUAUUUACAAA	0.358 ± 0.045	0.00292 ± 0.002
UCCUGGAUCAGCUUGCAAAGAAUUUAGUUA	0.113 ± 0.014	0.0101 ± 0.0046
AGGACCUACAGCUUGCAUAGUAUAUUAGUUA	1.18 ± 0.097	0.0609 ± 0.015
UCCACCAACAGCUUGCUUAGUAUUUAGUUA	1.31 ± 0.061	0.026 ± 0.0061
AGGACCUUCUGCUUGCAUAGUAUUUAGUUA	1.24 ± 0.042	0.082 ± 0.015
UCGACCUACAGCAUGGAUAGUAUUUAGUUA	1.59 ± 0.076	0.0294 ± 0.005
UCCUGCUAGAGCUUGCAUAGUUUUUAGUUA	0.184 ± 0.022	0.0151 ± 0.0045
UCCACGUACAGCUUCCAUAGUAUUUAGUUA	0.0581 ± 0.014	0.0042 ± 0.0014
UCCUCGUACAGCUUGCAUAGUAUUUUGUUA	0.762 ± 0.038	0.0372 ± 0.006
UCCUCCAUGAGCUUGCAUAGUAUUUAGAAA	0.155 ± 0.024	0.00465 ± 0.0018
UGGACCUACAGCUUGCAUAGUAUAAAGUUA	0.519 ± 0.043	0.0182 ± 0.0049
UCCUCCUACUGCUUGCAUAGUAUUUAGUAA	0.328 ± 0.029	0.0179 ± 0.0034
UCCUGGAUGAGCUUGGAUAGUAUUUAGUUA	0.652 ± 0.051	0.0464 ± 0.0087
AGGACCUACAGCUUCGCAUAGUAUUUAGUUA	1.27 ± 0.071	0.0296 ± 0.0087
